Measured values from the supplement of paper PMC10126150.
Values marked as one replicate rest on one cluster of the flow cell; about a third of the high ones do not repeat.

These sequences were tested on ATP (assay: switch fluorescence ratio, 500 uM ATP over buffer (Cy3 cluster intensity, sum of 5 cycles each) (fold (ratio)); higher = stronger signal-on switching upon ATP binding; sequences stand for … in TCGTCGGCAGCGTCAGATGTGTATAAGAGACAGTTTTTTTTTTTTTTTTTTTTTTTTT…TC). Settings: aptamer strand: ATP DNA aptamer (quencher-CACCTGGGGGAGTATTGCGGAGGAAGG + anchor), 100 nM annealed; ATP concentration: 500 uM; one replicate.
In short: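 Per cluster, summed Cy3 intensity from the target cycles was divided by that from the buffer cycles to give the fluorescence ratio, then averaged per switch-domain sequence. Clusters outside 100-1000 RFU were excluded. The Cy3-labelled switching-strand clusters, on a modified Illumina MiSeq flow-cell, were annealed to 100 nM quencher-labelled ATP aptamer and imaged in selection buffer, then after 15 min with 500 uM ATP at 22 °C, for five cycles with NaOH stripping and re-annealing between them.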
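Further: ATP exposure 15 min at 22 °C before imaging.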

| Sequence | switch fluorescence ratio |
| --- | --- |
| GACAGCTTTT | 0.999 |
| GACAGGGTTC | 1 |
| GACAGTCTCC | 1.04 |
| GACAGTGAGG | 1.03 |
| GACAGTGCAC | 1 |
| GACATCTCAG | 1.02 |
| GACATGCTTA | 1.02 |
| GACATGGAGC | 1.05 |
| GACATGTAGC | 1 |
| GACATGTGCG | 1.04 |
| GACATTGGAT | 1 |
| GACATTGGCG | 1.01 |
| GACCAAAAGA | 1 |
| GACCAAAGAT | 1.07 |
| GACCAGTAAC | 1.09 |
| GACCATTACG | 1.13 |
| GACCCCGTTG | 1 |
| GACCCGAAAC | 1.27 |
| GACCCGCCGG | 1.04 |
| GACCCGGCAC | 1.09 |
| GACCCGTTCT | 1.06 |
| GACCCTCTAG | 1 |
| GACCGACCGT | 1.37 |
| GACCGAGTAG | 0.972 |
| GACCGATGCG | 0.999 |
| GACCGGACCC | 1.21 |

| Sequence | switch fluorescence ratio |
| --- | --- |
| GACCGGGAAA | 1.06 |
| GACCGTATCT | 1.08 |
| GACCTAACGT | 1.31 |
| GACCTCACCA | 1.2 |
| GACCTCCTTT | 1.07 |
| GACCTCGAAT | 1.01 |
| GACCTCTGTT | 0.986 |
| GACCTGTTTA | 0.982 |
| GACCTTAGTA | 0.974 |
| GACGAAAACG | 1.04 |
| GACGACAGTT | 1.03 |
| GACGACCCT | 1.2 |
| GACGACGGTG | 1 |
| GACGACTGTT | 1.07 |
| GACGAGGTGT | 1.08 |
| GACGCAGATG | 1.37 |
| GACGCATAAT | 4.37 |
| GACGCCCTGA | 1.09 |
| GACGCCTACA | 1.44 |
| GACGCTTATA | 4.13 |
| GACGGAAACT | 1.33 |
| GACGGAATTT | 1.06 |
| GACGGACAAT | 1.53 |
| GACGGCACAC | 1.29 |
| GACGGGCGAG | 1 |
| GACGGTCGCT | 1.03 |

| Sequence | switch fluorescence ratio |
| --- | --- |
| GACGGTGAAC | 1.15 |
| GACGGTGTGG | 1.03 |
| GACGTAGCGT | 1.32 |
| GACGTAGTTG | 1.02 |
| GACGTATC | 1.05 |
| GACGTCGTGT | 0.994 |
| GACGTGAAGT | 1.03 |
| GACGTGCGTT | 1.03 |
| GACGTGGCCA | 1.03 |
| GACGTGTCAT | 0.972 |
| GACGTTAGCA | 1.1 |
| GACGTTTACC | 1.13 |
| GACTAAGGG | 0.995 |
| GACTAAGGTG | 1.25 |
| GACTACAAGG | 1.01 |
| GACTAGACCT | 1.33 |
| GACTAGAGCG | 0.996 |
| GACTAGCGGG | 0.961 |
| GACTAGTTG | 1.01 |
| GACTATAGGG | 0.986 |
| GACTATTTTA | 1.01 |
| GACTCACAGC | 1.17 |
| GACTCAGCTA | 1.97 |
| GACTCATTGT | 1 |
| GACTCCAGCT | 2.03 |
| GACTCCCTTG | 0.995 |

| Sequence | switch fluorescence ratio |
| --- | --- |
| GACTCCGGT | 1.62 |
| GACTCGGGGT | 0.964 |
| GACTCTGTAA | 3.16 |
| GACTCTTGAT | 0.978 |
| GACTGACGTC | 1.07 |
| GACTGAGAAA | 1.03 |
| GACTGAGT | 0.984 |
| GACTGCGTTA | 0.996 |
| GACTTAACAG | 0.991 |
| GACTTAACGG | 1.03 |
| GACTTAAGGG | 1 |
| GACTTGCCTA | 1.01 |
| GACTTGCTCG | 0.998 |
| GACTTGGATG | 0.989 |
| GACTTTAAAC | 0.99 |
| GACTTTAATT | 1.03 |
| GAGAAAAGAT | 1.01 |
| GAGAAAATTA | 1.01 |
| GAGAAACGGA | 1 |
| GAGAAATTCA | 1.02 |
| GAGAAGCCAT | 0.984 |
| GAGAATGGTT | 1.01 |
| GAGACATAGA | 0.984 |
| GAGACCAGCT | 1.01 |
| GAGACGGTGT | 1.06 |
| GAGACGTGGT | 1 |

| Sequence | switch fluorescence ratio |
| --- | --- |
| GAGACGTTAA | 1.1 |
| GAGAGCAGAG | 1.05 |
| GAGAGCATTT | 1.01 |
| GAGAGCCAAG | 0.972 |
| GAGAGGACTT | 0.95 |
| GAGAGGGCGG | 0.946 |
| GAGAGGGTTC | 1.05 |
| GAGAGGTAAT | 0.956 |
| GAGAGGTCAG | 1.03 |
| GAGAGTACCT | 1.14 |
| GAGAGTGCCT | 0.975 |
| GAGAGTTCCG | 0.939 |
| GAGATACCGA | 1.05 |
| GAGATATGTA | 1.02 |
| GAGATATGTT | 0.973 |
| GAGATCATT | 0.987 |
| GAGATCGAAC | 1.05 |
| GAGATCGTT | 0.939 |
| GAGATGGAAT | 1 |
| GAGATTGA | 0.995 |
| GAGATTGGG | 0.996 |
| GAGATTTTAT | 1.01 |
| GAGATTTTGC | 1.01 |
| GAGCATAT | 1.28 |
| GAGCATCCAG | 1.03 |
| GAGCATTTCA | 1.01 |

| Sequence | switch fluorescence ratio |
| --- | --- |
| GAGCCAAGAT | 1.08 |
| GAGCCAATTT | 1.01 |
| GAGCCCGGTT | 0.989 |
| GAGCCCTTTT | 1.02 |
| GAGCCGGTTG | 0.961 |
| GAGCCGTTGA | 0.981 |
| GAGCGAACTC | 1.18 |
| GAGCGCTCTG | 1.02 |
| GAGCGGTCGA | 1.04 |
| GAGCGTACCT | 1.14 |
| GAGCGTTTTA | 1 |
| GAGCTAACCA | 0.997 |
| GAGCTAAGAT | 1.02 |
| GAGCTACCAG | 1.05 |
| GAGCTAGTGG | 1 |
| GAGCTATCGA | 1.03 |
| GAGCTATCTT | 1.02 |
| GAGCTTAATC | 1.01 |
| GAGCTTAGG | 1.05 |
| GAGCTTGGTT | 0.998 |
| GAGGACCTGA | 1.07 |
| GAGGACGTCT | 1.07 |
| GAGGACTA | 0.99 |
| GAGGAGGACA | 0.96 |
| GAGGAGGTAG | 1.02 |
| GAGGATGCTT | 1.06 |

| Sequence | switch fluorescence ratio |
| --- | --- |
| GAGGATTACT | 1 |
| GAGGCAAAAA | 1.29 |
| GAGGCACAGT | 1 |
| GAGGCCCAAG | 1.02 |
| GAGGCCCCCG | 1.04 |
| GAGGCCTGA | 0.974 |
| GAGGCGCCAG | 0.966 |
| GAGGGAAGTC | 0.951 |
| GAGGGACAGG | 1.02 |
| GAGGGATACC | 1.02 |
| GAGGGCAGGC | 0.65 |
| GAGGGCTATA | 1.04 |
| GAGGGGGTGT | 1.02 |
| GAGGGTCGAG | 1.03 |
| GAGGGTCGGA | 0.964 |
| GAGGGTCGTA | 0.98 |
| GAGGGTCTAT | 1.04 |
| GAGGTAAAA | 0.968 |
| GAGGTAAGTT | 1.07 |
| GAGGTCG | 1.01 |
| GAGGTCTTGA | 0.965 |
| GAGGTGGGGT | 1.01 |
| GAGTAAACGG | 1.01 |
| GAGTAACAAG | 1.03 |
| GAGTAAGGTG | 0.963 |
| GAGTAATATA | 1.02 |

| Sequence | switch fluorescence ratio |
| --- | --- |
| GAGTACCTGA | 1.07 |
| GAGTAGAGAT | 1 |
| GAGTAGTGTG | 0.957 |
| GAGTATAAC | 0.972 |
| GAGTATGCCT | 1.01 |
| GAGTCAAAGG | 1 |
| GAGTCATTG | 1.02 |
| GAGTCCATCC | 1 |
| GAGTCCCTAT | 1.05 |
| GAGTCCCTCA | 0.984 |
| GAGTCCGAGA | 1.64 |
| GAGTCGACGT | 1.03 |
| GAGTCGAGTC | 1 |
| GAGTCTACCG | 0.994 |
| GAGTCTGATG | 0.973 |
| GAGTCTGCTG | 1.08 |
| GAGTGACGA | 0.955 |
| GAGTGAGATG | 1.01 |
| GAGTGCGCTC | 0.92 |
